The source gives no read counts; variants with many changes may rest on few reads.
B1: OR4K15 (parent)
chain: GUUAACGGUCAUAGGCCAUGGAAACUAGGAGCACCAUUUCGCUGCCAGUGAAGAAAUGAACAAAGAAAAUCUGGGCCAGGCAGGCAUCAAAAGAAAUAGUCUUGCGCUCAACCAGAAAGUCUGUAAUCAUUUUAAGGGUA

Variants of: B1
Assay: self-cleavage, relative activity (ratio to wild type); higher = more cleavage; in vitro, sequencing; the parent is a self-cleaving ribozyme

Question: With GUUAACGGUCAUAGGCCAUGGAAACUAGGAGCACCAUUUCGCCGCCAGUGAAGAAAUGAACAAAGAAAAUCUGGGCCAGGCAGGCAUCAAAAGAAAUAGUCUUGCGCUCAACCUGAAAGUCUGUAACUAUUUCAAGGGUA [U43C A114U U127C C128U U133C] as the variant, how does the self-cleavage read?
Answer: The self-cleavage was 0.

Question: Which self-cleavage does the source give for GACAACGGUCAUAGGCCAUGGAAACUAGGAGCACCAUUUCGCUGCCAGUGAAGGAAUGAACAAAGAAAAUCUGGGCCAGGCAGGCAUCAAAAGAAAUAGUCUUGCGCUCAACCAGAAAGUCUGUAAUCAUUUUAAGGGUA [U2A U3C A54G] here?
Answer: Its self-cleavage is 0.34.

Question: For GUUAGCGGUCAUAGGCCAUGGAAACUAGGAGCACCAUUUCGCUGCCAGUGAAGAAAUGAACAAAGAAAAUCUGGGACAGGCAGGCAUCAAAAGAAAUAGUCUUGCGCUCAACCAGAAAGUCUGUAAUCACUUUAAGGGUA [A5G C76A U130C], which self-cleavage is on record?
Answer: Its self-cleavage is 0.25.

Question: For GUUAACGGUCAUAGGCCAAGGAAACUAGGAGCGCCAUUUCGCUGCCAGUGAAGAAAUGAACAAAGAAAAUCUGGGCCAGGCAGGCAUCAAAAGAAAUGGUCUUGCGCUCGACCAGAAAGUCUGUAAUCAUCUUAAGGGUA [U19A A33G A98G A110G U131C], which self-cleavage is on record?
Answer: Its self-cleavage is 0.01.

Question: Which self-cleavage does the source give for GUUAACGGUCAUAGGCCAUGGGAACUAGGAGCACCAUUUCGCUGCCAGUGAAGAAAUGGACAAAGAAGAUCCGGGCCAGGCAGGCAUCAAAAGAAAUAGUCCUGCGCUCAACCAGAAAGUCUGUAUUCAUUUUAAGGGUA [A22G A59G A68G U72C U102C A126U] here?
Answer: Its self-cleavage is 0.48.

Question: Which self-cleavage does the source give for GUUGACGGUCAUAGGCCAUGGAAACUAGGAGCACCAUUUCGCUGCCAGUGAGGAAAUGAACAAAGAAAACCUGGGCCAGGCAGGCAUCAAAAGAAAUAGUCUUGCGCUCCACCAGAAAGUCUGUAAUCAUUUUAAGGGUA [A4G A52G U70C A110C] here?
Answer: Its self-cleavage is 0.15.

Question: For GUUAACGGUCAUAGGCCAUGGAAACUAGGAGCACCAUUUCGAUGCCAGUGAAAAAAUGAACAAAGAAAAUCUGGGCCAGGCAGGCGUCAAAAGAAAUAGUCUUGCGCUCAACCAGAAAGUCUGUAAUCAUUUUAAGGGUA [C42A G53A A86G], which self-cleavage is on record?
Answer: The self-cleavage was 1.3.

Question: For GUUAACGGUCAUAGGCCAGGGAAACUAGGAGCACCAUUUCGCUGCCAGUGAGGAAAUGAACAAAGAAAAUCUGGGCCAGGAAGGCAUCAAAAGAAAUAGUCUUGCGCUCAACCAGAAAGUCUGUAAUCAUUUUAAGGGUA [U19G A52G C81A], which self-cleavage is on record?
Answer: The self-cleavage was 0.69.

Question: For GUUAACGGUCAUAGGCCAUGGAAACCAGGAGCGCCAUUCCGCUGCCAGUGAAGAAAUGAACAAAGAAGAUCUGGGCCAGGCAGGCAUCAAAAGAAAUAGUCUCGCGCUCAACCAGAAAGUCUGUAAUCAUUUUAAGGGUA [U26C A33G U39C A68G U103C], which self-cleavage is on record?
Answer: The self-cleavage was 0.48.

Question: With GUUAUCGGUCAUAGGCCAUGGAAACUAGGAGCACCAUUUCGCUGCCAGCGAAGAAAUGAACAAAGAAAAUCUGGGCCAGGCAGGCAUCGAAAGAAAUAGUCUUGCGCUCAACCAGAAAGUCUGUAAUCAUUUUAAGGGUA [A5U U49C A89G] as the variant, how does the self-cleavage read?
Answer: Its self-cleavage is 1.02.

Question: For GUUUACGGCCAUAGGCCAUGGAAACUAGGAGCACCAUUUCGCUGCCAGUGAAGAAAUGAACAAAGAAGAUCUGGGCCAGGCAGGCAUCAAAAGGAAUAGUCUUGCGCUCAACCAGAAAGUCUGUAAUCAUUUUAAGGGUA [A4U U9C A68G A94G], which self-cleavage is on record?
Answer: Its self-cleavage is 0.53.

Question: Which self-cleavage does the source give for GCUAACGGUCAUAGGCCAUGGGAACUAGGAGCACCAAUCCGCUGCCAGUGAGGAAAUGAACAAAGAAAAUCUGGGCCAGGCGGGCAUCAAAAGAAAUAGUCUUGCGCUCAACCGGAAAGUCUGUAAUCAUUUUAAGGGUA [U2C A22G U37A U39C A52G A82G A114G] here?
Answer: The self-cleavage was 0.37.

Question: For GUUAACGGUCAUAGGCCGUGGAAACUAGGAGCACCAUUUCGCUGCCAGUGGAGAAAUGAACAAAGAAAAUCUGGGCCAGGCAGGCAUCAAAAGAAAUAGUCUCGCGCUCAACCAGAAAGUCUGUAAUCAUUCAAAGGGUA [A18G A51G U103C U132C U133A], which self-cleavage is on record?
Answer: Its self-cleavage is 1.54.

Question: For GUUAACGGUCAUAGGCCAUGGAAACUAGGAGCACCAUUUCGCUGCCAGUGAAGAAAUGAACAAAGAAGAUCUGGGCCAGGCAGGCAUCAAAAGAAAUAGUCUUGCGCUCGACCAGAAAGUCUGUAACCAUUUUAAGGGUA [A68G A110G U127C], which self-cleavage is on record?
Answer: The self-cleavage was 0.03.

Question: For GUUAACGGUCAUAGGCCAUGGAAACUAGGAGCACCACUUCGCUGCCAGUGAAGAAAUGAACAAAGAAAGUCUGAGCCAGGCAGGCAUCAAAAGAAAUAGUCUUGCGCUCAACCAGAAAGUCUGUAAUCAUUUUAAGGGUA [U37C A69G G74A], which self-cleavage is on record?
Answer: The self-cleavage was 0.15.

Question: Which self-cleavage does the source give for GUUAACGGUCAUAGGCCAUGGAAACUAGGAGCACCAUUUCGCUGCCAGUGAAGAAAUGAGCAAAGAAAAUCUGGGCCAGGCAGGCAUCAAAAGAAAUAGUCUUGCGCUCAACCAGAAAGUCUGUAAUCACUUUAGGGGUA [A60G U130C A135G] here?
Answer: The self-cleavage was 0.76.

Question: Which self-cleavage does the source give for GUUAAUGGUCAAAGGCCAUGGUAACUAGGAGCACCAUUUCGCUGCCAGUGAAGAAAUGAACAAAGAAAAUCUGGGCCAGGCAGGCAUCAAAAGAAAUAGUCUUGCGCUCAACCAGAAAGUCUGUAAUCAGUUUAAGGGUA [C6U U12A A22U U130G] here?
Answer: The self-cleavage was 1.09.

Question: Which self-cleavage does the source give for GUUAACGGUCAUAGGCCAUGGAAACUAGGAGCACCAUUUCGCUGCCAGUGAGGAAAUGAGCAAAGAAAAUCUGGGCCAGGCAGGCAUCAGAAGAAAUAGUCUUGCGCUCAACCAGAAAGUCUGUAAUCAUUUUAAGGGUA [A52G A60G A90G] here?
Answer: The self-cleavage was 0.66.

Question: For GUUAACGGUCAUAGGCCAUGGAAACUAGGAGCACCAUUUCGCUGCCAGUGAAGAAAUGGACAAAGAAAAUCUGGGCCGGGCAGGCAUCAAAAGAAAUAGUCUUGCGCUCAACCAGUAAGUCUGUAAUCAUUUUAAGGGUA [A59G A78G A116U], which self-cleavage is on record?
Answer: Its self-cleavage is 0.04.

Question: For GUUAACGGUCAUAGGCCAUGGAAACUAGGAGCACCAUUUCGCUGCCAGUGAAGAAAGGAACAAAGAAAAUCUGGGCCAGGCAGGCAUCAGAAGAAAUAGUCUUGCGCUCAACCAGAAAGUCUGUAAUCAUUUUAGGGGUA [U57G A90G A135G], which self-cleavage is on record?
Answer: Its self-cleavage is 0.8.

Question: With GUUAACGGUCAUAGGCCAUAGAAACUAGGAGCACCAUUUCGCUGCCAGUGAAGAAAUGAACAAAGAAAAUCUGGGCCAGGCAGGCAUCAAAAGAAAUAGUCUUGCACUCAACCAGGAAGUCUGUAAUCAUUUUAAGGGUA [G20A G106A A116G] as the variant, how does the self-cleavage read?
Answer: Its self-cleavage is 0.04.

From the RNAGym collection of RNA variant scans (doi:10.7554/elife.90254)
